About 120 (0.25%) of roughly 48,000 compounds were called active. Another 4% or so got no clear call; they are omitted. Calls come from the whole dose curve; as a rule, active = well fitted activation curve with a large enough effect; inconclusive = small, poorly fitted or top-dose-only effect, or another doubt; inactive = no such curve, though single readings can be large or run the other way. Some of the results follow.

This assay in a line: Primary qHTS for Identification of Small Molecule Activators of Huntingtin-Antisense Promoter Activity. Note: nearly all actives have a fitted effect of over 55% in size. As to conditions: HEK293 HTT-AS promoter firefly luciferase reporter, 24 h; series mostly up to 57.5 µM; activity change, positive = activation: at the top concentration. The procedure, abridged: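 Firefly luciferase signal from promoter-reporter HEK293 cells was scaled between vehicle (0%) and zero RLU (-100%). Compounds were tested at final concentrations of up to 57.5 uM over 24 h at 37 degrees C. PTC124 at 50 uM final served as control inhibitor.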
Take `Cc1cc(C)cc(NC(=O)Cn2c(=O)n(-c3cc(C)cc(C)c3)c(=O)c3oc4ccccc4c32)c1`: the “activity change, positive = activation” value is inactive: -20.8%.
`Cn1nc(C(=O)NCc2cccc(Cl)c2)c2c1-c1ccccc1S(=O)(=O)C2`: the “activity change, positive = activation” value was inactive: -13.7%.
For `Cc1ccccc1N(C)S(=O)(=O)c1nnc(NC(=O)c2ccccc2F)s1` the value was inactive: -27.6%; for `COc1cc(CN2CCc3nc(N4CCN(c5ncccn5)CC4)ncc3C2)cc(OC)c1OC`, inactive: -73.9%.
For `COc1ccc(-n2ccnc2SCC(=O)Nc2nnc(C)s2)cc1` the value was inactive: -18.8%.
As to `COc1cccc(Cn2c(CNC(=O)CCc3ccccc3)nc3cccnc32)c1`, the “activity change, positive = activation” value was inactive: -13.2%.
`Cc1ccc(NC(=O)C(=O)NCCc2sc(-c3ccc(Cl)cc3)nc2C)cc1C`: the “activity change, positive = activation” value is inactive: -3.85%.
In the case of `Cc1ccc(S(=O)(=O)NCCc2csc(-c3ccc(Cl)cc3)n2)cc1`, the “activity change, positive = activation” value is inactive: -61.5%.
For `Cc1c(Cl)cccc1NC(=O)CCS(=O)(=O)c1ccc2c(c1)oc(=O)n2C` the value was inactive: -5.86% [at 11.5 µM, percent change from vehicle, -100% = no light].
In the case of `CN(c1ccccc1)S(=O)(=O)c1nnc(NC(=O)C2CCCCC2)s1`, the “activity change, positive = activation” value is inactive: -18.1%.
In the case of `COc1cccc(CNC(=O)CCn2nc(C)c3c(C)n(-c4ccccc4)nc3c2=O)c1`, the “activity change, positive = activation” value was inactive: 8.43%.
For `CCOC(=O)C1CCCN(S(=O)(=O)c2cc3c4c(c2)CC(=O)N4CCC3)C1` (configuration not stated) the value was inactive: -15%; for `COc1ccc(C2c3c(oc4ccc(C)cc4c3=O)C(=O)N2CCCN2CCOCC2)cc1OC` (configuration not stated), inactive: 1.44%.
With `COc1ccc(NC(=O)C2=CC(c3ccc4c(c3)OCO4)=NS(=O)(=O)N2C)cc1` the figure was inactive: -11.9%.
With `CCC(C)(C)NC(=O)C1CCN(S(=O)(=O)c2c(C)noc2/C=C/c2ccc(C)cc2)CC1` the figure was inactive: -33.5%; with `COc1ccc(C)cc1NC(=O)C1COc2ccccc2C1` (configuration not stated), inactive: 22.2%; with `Fc1ccc(-n2cc(-c3ccccc3)c3c(NCCc4ccccc4)ncnc32)cc1`, inactive: 10.3%.
For `CCc1ccc(NC(=O)Cn2c(=O)n(CCCCC(=O)NCCc3ccccc3)c(=O)c3ccccc32)cc1`, the “activity change, positive = activation” value is inactive: -7.98%.
For `COc1ccc(-c2noc(CC(=O)Nc3ccc(Br)cc3C)n2)cc1` the value was inactive: -8.07%; for `COc1ccc(S(=O)(=O)NCC(c2ccc(N(C)C)cc2)N2CCCC2)cc1` (configuration not stated), inactive: -6.27%; for `COc1cccc(CNC(=O)c2oc3c(c2C)-c2nn(Cc4cccc(Cl)c4)cc2CC3)c1`, inactive: -31.8%.
For `CCCCCCOC(=O)NC(=N)c1ccc(NCc2nc3cc(C(=O)N(CCC(=O)OCC)c4ccccn4)ccc3n2C)cc1` the value was inactive: -29.7%.
As to `Cc1ccc2c(=O)cc(C(=O)Nc3ccc(S(=O)(=O)N(C)Cc4ccccc4)cc3)oc2c1C`, the “activity change, positive = activation” value was inactive: -8.68%.
On to `COc1cccc(C(=O)NCc2cn3ccccc3n2)c1`, for which the “activity change, positive = activation” value was inactive: -8.75%.
With `CN(N=O)C(=O)N[C@@H]1[C@@H](O)[C@H](O)[C@@H](CO)O[C@@H]1O` the figure was inactive: -10.2%.
With `CCOc1ccc(OCC)c(NS(=O)(=O)c2c(C(=O)N3CCCCCC3)c(C)n(C)c2C)c1` the figure was inactive: -12.4%; with `CCOc1ccc(C(=O)c2cn(CC(=O)Nc3ccc(F)cc3)c3cc4c(cc3c2=O)OCCO4)cc1`, inactive: -37.9%; with `O=C(CSc1nnc(-c2ccccc2)c(-c2ccccc2)n1)NC1CCCC1`, inactive: -23.8%.
With `O=C(NCCCO)C(=O)NCC(c1ccc2c(c1)OCO2)N1CCOCC1` (configuration not stated) the figure was inactive: -7.98%; with `CCCCCCCCCCCCCCCCCCCCCCO`, inactive: 3.72%; with `CCN1C(C(=O)c2ccccc2)=C(OC(=O)c2ccc(OC)cc2)c2ccccc2S1(=O)=O`, inactive: -31.1%.
For `NCCc1cnc[nH]1`, the activity change, positive = activation entry is “inactive”.
For `Cc1ccc(NC(=O)c2oc3ccc(S(=O)(=O)N4CCCCC4)cc3c2C)cc1Cl`, the “activity change, positive = activation” value is inactive: 1.97%.
For `CCN(Cc1ccccc1)C(=O)CCc1c(C)nc2c(c(C)nn2-c2ccc(C)c(C)c2)c1C` the value was inactive: -10.7%.
`NS(=O)(=O)c1ccc(NC2=CC(=O)c3ccccc3C2=O)cc1`: the “activity change, positive = activation” value is inactive: -17.5%.
With `CCc1cccc(C)c1NC(=O)Cn1cc2c(n1)CCCC2` the figure was inactive: -23.1%; with `Cn1c(=O)c2c(-c3ccc(Br)cc3)n(CCc3ccccc3)cc2n(C)c1=O`, inactive: -13.2%; with `Cc1ccc(NC(=O)Nc2nnc(N(C)C3CCCCC3)s2)c(Cl)c1`, inactive: 4.25%.
For `Cc1cc(C)c(/C=C/c2onc(C)c2S(=O)(=O)N2CCC(C(=O)N(C)Cc3ccccc3)CC2)c(C)c1` the value was inactive: -5.1%.
For `Cc1ccc(-n2c(=O)c3c4c(sc3n(Cc3ccccc3C)c2=O)CCC4)cc1C` the value was inactive: -17.3%; for `CC(=O)NC(Cc1ccccc1)C(=O)O` (configuration not stated), inactive: -11.2%; for `O=C(Nc1ccc2c(c1)OCO2)c1cc(-c2ccc(Br)cc2)on1`, inactive: 7.75%.
For the compound `Cc1ccccc1C(=O)Nc1nc2nc(-c3ccccc3)cc(=O)n2[nH]1`, the “activity change, positive = activation” value is inactive: -0.14%.
On to `COc1ccc(O)cc1`, for which the “activity change, positive = activation” value was inactive: -3.13%.
Regarding `Clc1cccc(-n2cc(-c3ccccc3)c3c(N4CCCCC4)ncnc32)c1`, the “activity change, positive = activation” value was inactive: -4.18%.
With `CCC1CN(C(=O)C2CCN(S(=O)(=O)c3c(C)noc3/C=C/c3ccccc3F)CC2)c2cc(C)ccc2O1` (configuration not stated), the “activity change, positive = activation” value was inactive: 16.5%.
As to `COCCN1CCN(Cc2ccc(C(=O)NC(C)C)cc2)C(=O)C1=O`, the “activity change, positive = activation” value is inactive: 5.65%.
With `CCCCn1c(SCC(=O)NCc2ccc(C)cc2)nc2c(sc3ccccc32)c1=O` the figure was inactive: 9.8%; with `COc1ccc(CNC(=O)C(C)n2c(=O)cc(C)c3c(C)nn(-c4ccccc4)c32)cc1` (configuration not stated), inactive: -1.65%; with `COc1ccc(NC(=O)c2oc3ccccc3c2NC(=O)Cc2cccs2)c(OC)c1`, inactive: -14.1%.
For the compound `NS(=O)(=O)c1cc2c(cc1Cl)NC(C(Cl)Cl)NS2(=O)=O` (configuration not stated), the activity change, positive = activation result was “inactive”.
For `Cc1nc2c(c(C)nn2-c2ccccc2)c(C)c1CCC(=O)NCc1ccccc1` the value was inactive: -25.1%; for `CCc1cccc(NC(=O)C2CCN(S(=O)(=O)c3cccc(-c4noc(C)n4)c3)CC2)c1`, inactive: -38.7%; for `CCN1CCN(c2cc(C)c3cc(NC(=O)c4ccc(OC)c(OC)c4)ccc3n2)CC1`, inactive: -0.287%.
Turning to `CCN1CCN(Cc2c(O)ccc3cc(-c4ccc(OC)cc4)c(=O)oc23)CC1`, the “activity change, positive = activation” value is inactive: -8.26%.
With `COc1ccc(C2c3cccn3CCN2S(=O)(=O)c2ccc([N+](=O)[O-])cc2)cc1` (configuration not stated) the figure was inactive: -16.1%; with `COc1ccc(C)cc1Nc1nc(N)c2cc(OC)c(OC)cc2n1`, inactive: -16%; with `CC(=O)c1cccc(NC(=O)c2nc(-c3ccccc3)n(-c3ccccc3C)n2)c1`, inactive: -29.4%.
For `COc1ccc(CN2CCCN(CC(=O)Nc3ccc4c(c3)OCCO4)S2(=O)=O)cc1` the value was inactive: -3.04%; for `CCC(=O)Nc1ccc(O)cc1`, inactive: -0.177%; for `COc1ccc(C2CC(=O)N(CC(=O)Nc3cccc(C)c3C)c3ccccc3S2)cc1OC` (configuration not stated), inactive: -37.4%.
With `Cc1ccc(C(=O)N2CCC(C(N)=O)CC2)cc1NC(=O)c1nsc2ccccc12` the figure was inactive: 2.94%.

The record behind these values is PubChem BioAssay AID1508624 (National Center for Advancing Translational Sciences (NCATS), 2021).
